# In paper PMC4336329 (PLoS ONE, 2015):
# Out of some 310,000 compounds screened, about 14,000 (4.5%) showed an effect of 50% or more. The effect is printed as a negative number. The list shows a part of the results.
# Molecular target: human ether-à-go-go-related gene (hERG) potassium channel (human, UniProt Q12809)
# Assay: primary screen, population patch clamp on CHO cells stably expressing hERG
# 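Also: peak tail current of the secondary pulse compared with the same well before compound.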
# Chain of human ether-à-go-go-related gene (hERG) potassium channel (Q12809 whole entry, looked up): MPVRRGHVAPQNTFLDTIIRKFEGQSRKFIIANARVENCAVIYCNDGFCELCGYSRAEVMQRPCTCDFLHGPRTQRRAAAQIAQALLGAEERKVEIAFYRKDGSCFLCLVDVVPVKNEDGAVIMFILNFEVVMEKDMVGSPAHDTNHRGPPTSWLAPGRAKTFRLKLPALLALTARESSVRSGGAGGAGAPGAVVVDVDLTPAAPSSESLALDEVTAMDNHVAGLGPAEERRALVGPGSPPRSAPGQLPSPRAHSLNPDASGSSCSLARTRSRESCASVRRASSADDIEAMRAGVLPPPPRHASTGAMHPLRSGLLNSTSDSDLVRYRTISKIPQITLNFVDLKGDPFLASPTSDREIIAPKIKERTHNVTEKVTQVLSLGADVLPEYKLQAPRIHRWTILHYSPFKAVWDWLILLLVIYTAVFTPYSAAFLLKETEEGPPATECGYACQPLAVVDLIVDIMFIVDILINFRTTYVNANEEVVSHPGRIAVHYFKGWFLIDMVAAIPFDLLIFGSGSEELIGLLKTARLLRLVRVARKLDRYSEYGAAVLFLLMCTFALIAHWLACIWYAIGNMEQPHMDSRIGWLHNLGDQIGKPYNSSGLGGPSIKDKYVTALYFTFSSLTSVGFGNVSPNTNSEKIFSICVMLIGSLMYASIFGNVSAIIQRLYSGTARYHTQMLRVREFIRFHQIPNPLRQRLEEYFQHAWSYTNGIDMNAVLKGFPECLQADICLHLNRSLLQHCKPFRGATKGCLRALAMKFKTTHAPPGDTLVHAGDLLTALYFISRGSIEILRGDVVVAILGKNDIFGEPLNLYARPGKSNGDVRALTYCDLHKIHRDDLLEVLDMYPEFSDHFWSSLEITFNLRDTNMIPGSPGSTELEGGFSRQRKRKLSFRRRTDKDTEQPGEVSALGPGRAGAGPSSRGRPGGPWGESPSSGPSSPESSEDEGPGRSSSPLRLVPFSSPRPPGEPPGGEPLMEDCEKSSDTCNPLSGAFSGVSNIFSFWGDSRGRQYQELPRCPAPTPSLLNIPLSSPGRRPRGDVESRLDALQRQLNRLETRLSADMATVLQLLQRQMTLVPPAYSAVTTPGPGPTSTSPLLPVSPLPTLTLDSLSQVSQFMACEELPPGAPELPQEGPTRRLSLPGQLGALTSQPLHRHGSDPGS
row,Compound,"hERG current change (%, negative = inhibition) at 10uM"
1,O=C(NNC(=O)c1ccc([N+](=O)[O-])cc1)c1ccc(Br)cc1,14.5%
2,CN(CC(=O)NC1(C)CCS(=O)(=O)C1)S(=O)(=O)c1ccc(Cl)cc1 (stereo not drawn),5.87%
3,Cc1ccc(C)c(S(=O)(=O)N2CCN(C(=O)CSc3ccccc3)CC2)c1,-28.8%
4,Cc1ccc(S(=O)(=O)/N=C(\Nc2cc(C)on2)c2ccc(Cl)cc2)cc1,-27.3%
5,COCCN(C(=O)CSc1nnc(-c2cccc(F)c2)n1N)c1c(N)n(CC(C)C)c(=O)[nH]c1=O,11.9%
6,COc1cc(Nc2cc(C)nc3nc(C)nn23)cc(OC)c1OC,2.57%
7,COCc1c(Br)c(C)[nH]c(=O)c1C#N,-9.4%
8,Cc1cc(C)cc(NC(=S)NC2CC3CCC(C2)N3Cc2ccco2)c1 (stereo not drawn),-71.5%
9,Cc1c(C(=O)N2CCC(Cc3ccccc3)CC2)sc2ncnc(N3CCC(C)CC3)c12,8.19%
10,O=C1CCCc2c1cc(C(=O)NCCCN1CCOCC1)c(=O)n2-c1ccc(Cl)cc1,1.59%
11,COC(=O)[C@@]12CCCN1[C@H](c1ccc(-c3ccc(OC)cc3)c(OC)c1)[C@H]1C(=O)N(C)C(=O)[C@H]12.O=C(O)C(F)(F)F,-30.1%
12,C=CCNc1cnn(CC(C)=O)c(=O)c1Br,-5.81%
13,O=C(c1cc(COc2ccc3ncccc3c2)on1)N1CCCC1,10.5%
14,COc1ccc(N(CC(=O)Nc2ccc(C)cn2)S(=O)(=O)c2c(C)nn(C)c2C)cc1,-17.4%
15,CC1C(=O)C(C)C(c2cccs2)NC1c1cccs1 (stereo not drawn),-4.79%
16,CC(=O)c1ccccc1NS(=O)(=O)c1c(C)nn(-c2ccccc2)c1C,3.03%
17,Cc1cc(C)c(C#N)c(N2CCN(c3ccccc3F)CC2)n1,17.3%
18,COc1ccc(CNC(=O)CN(C(=O)c2csnn2)c2cnc3ccccc3c2)cc1,-27%
19,COC(=O)c1cc(C)sc1NC(=O)C1C2C=CC(CC2)C1C(=O)O (stereo not drawn),10.5%

row,Compound,"hERG current change (%, negative = inhibition) at 10uM"
1,CN(c1ccc(C(=O)NCC2CCCO2)cc1)S(C)(=O)=O (stereo not drawn),9.92%
2,O=C1NC(=O)/C(=C/c2cc3c(cc2Br)OCO3)S1,16.5%
3,Cc1cccc(OCC(=O)Nc2nccs2)c1C,5.94%
4,COc1ccc(C(=O)Nc2nc(-c3ccc(OC)cc3)c(-c3ccc([N+](=O)[O-])cc3)s2)cc1,23.1%
5,CCc1nnc(NC(=O)CSc2nc3ccccc3o2)s1,2.62%
6,C=CCn1c(SCC(=O)NC2CCCC2)nc2c([nH]c3ccccc32)c1=O,-40.8%
7,CCC12CCCN3CCc4c(n(c5ccccc45)C(O)(C(=O)OC)C1)C32 (stereo not drawn),-28.9%
8,CN1C(=O)CC(N2CCN(c3ccccc3)CC2)C1=O (stereo not drawn),21.1%
9,O=C(c1ccc(COc2ccccc2Cl)o1)N1CCCC1,-23.6%
10,CNC(=S)N/N=C/c1cc(Br)c(OCc2ccncc2)c(OC)c1,3.01%
11,CCN(CC)c1nc(N2CCOCC2)c(C#N)c2c1CN(C)CC2,-7.2%
12,COc1ccc(C(C)(C)C)cc1NC(=O)COC(=O)c1cnc(C)cn1,1.74%
13,COc1ccc(S(=O)(=O)N(C)C2(C)CCS(=O)(=O)C2)cc1OC (stereo not drawn),1.33%
14,COC(=O)C1CCN(C(=O)c2ccc(OC3CCN(Cc4ccccn4)CC3)cc2)CC1,15.3%
15,Cc1ccccc1NC(=O)Cn1c(=O)n(Cc2ccccc2)c(=O)c2c(C)c(C)sc21,4.45%
16,Cn1nnnc1Sc1ncnc2scc(-c3ccc(C#N)cc3)c12,-21.2%
17,CC(C)c1ccc(NC(=O)CCN2C(=O)c3ccc([N+](=O)[O-])cc3C2=O)cc1,-0.849%
18,Cc1nn(C)c(C(=O)NNC(=S)NCC(C)C)c1Cl,14.8%
19,Cn1c(N)c(C(=O)COC(=O)c2ccc3c(c2)C(=O)N(c2ccc(Cl)cc2)C3=O)c(=O)n(C)c1=O,-41.5%

row,Compound,"hERG current change (%, negative = inhibition) at 10uM"
1,COc1ccc(CCN2CC(C(=O)NCCCn3nc(C)cc3C)CCC2=O)cc1 (stereo not drawn),-23.3%
2,COC(=O)c1c(O)c2c([nH]c1=O)CCCC2,1.25%
3,OC(CCN1CCC2(CC1)OCCO2)C(F)(F)F (stereo not drawn),2.61%
4,O=C1S/C(=C/c2ccc(N3CCOCC3)o2)C(=O)N1Cc1ccc(F)cc1,0.628%
5,COc1cc(C(=O)Nc2cccc(NC(=O)c3cccs3)c2)cc(OC)c1OC,-13.8%
6,O=C(CSCc1ccccc1)Nc1nccs1,-6.44%
7,CCn1cc(Br)c(C(=O)Nc2nccs2)n1,10.2%
8,CCOC(=O)c1cc(-c2ccccc2)sc1NC(=O)CC,1.19%
9,CC(C)C(c1nnnn1Cc1ccc(F)cc1)N1CCSCC1 (stereo not drawn),-20.7%
10,Cc1cccc(-c2nc(CS(=O)CC(=O)NC(C)CCc3ccccc3)c(C)o2)c1 (stereo not drawn),-45%
11,Cc1ccc(CCNC(=O)C2CCCN(S(=O)(=O)c3cnc[nH]3)C2)cc1 (stereo not drawn),3.78%
12,CCOC(=O)CC1C(=O)NCCN1S(=O)(=O)c1ccc(NC(C)=O)cc1 (stereo not drawn),18.8%
13,O=C(NCc1cccnc1)c1ccc(CS(=O)(=O)c2ccc(Br)cc2)o1,-17.6%
14,O=C(Nc1ccccn1)C(=O)Nc1ccccn1,-3.33%
15,c1ccc(-c2csc(Nc3ncccn3)n2)cc1,19.6%
16,CC1(C)CC2CC(C)(CN2C(=O)CN2C(=O)c3ccccc3C2=O)C1 (stereo not drawn),4.1%
17,CCCC(=O)Nc1cc(OC)c(OC)cc1C(=O)O,3.16%
18,Oc1c(Cl)cc(Cl)cc1C=Nc1ccc(Br)cc1,4.99%
19,CCCC(=O)Nc1ccc2nc(SCC(=O)Nc3nccs3)sc2c1,18.8%
